From PubChem BioAssay AID540317 (National Center for Advancing Translational Sciences (NCATS), 2011)
In all, about 390,000 compounds went through this assay and about 2,200 (0.56%) were called active. Entries that show only a call come without a potency. Inconclusive means that the source gave no clear call. Such entries were picked first, then a sample of the others. The call rests on the fitted dose curve; in most records, active means well fitted inhibition curve with a large enough effect; inconclusive means small, poorly fitted or top-dose-only effect; inactive means no such curve, though single readings can be large or run the other way. A potency beside an inconclusive call is a rough fit, not a confirmed value.

biological target: Chromobox protein homolog 1 (Homo sapiens) (UniProt P83916); test: HTS for Inhibitors of HP1-beta Chromodomain Interactions with Methylated Histone Tails; conditions: AlphaScreen HP1-beta / biotin-H3K9me3 peptide binding; series mostly up to 114 µM; further: nearly all actives have a fitted effect of over 70% in size
UniProt P83916, sequence (P83916 whole entry, looked up): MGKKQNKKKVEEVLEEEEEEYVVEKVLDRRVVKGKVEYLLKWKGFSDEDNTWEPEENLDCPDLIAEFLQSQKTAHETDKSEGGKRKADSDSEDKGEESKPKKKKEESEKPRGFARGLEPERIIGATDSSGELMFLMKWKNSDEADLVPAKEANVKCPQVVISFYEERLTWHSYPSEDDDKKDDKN
How it was run: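 HP1-beta protein (50 nM final) preincubated 30 min at room temperature with biotinylated H3(1-18)K9me3 peptide (50 nM) in PBS pH 7.4, 0.01% Tween-20, then compound added for 30 min. AlphaScreen streptavidin donor/nickel chelate acceptor beads (10 ug/mL final), 30 min dark, luminescence read.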
Potency means the concentration at half of the fitted maximal effect; tags describe the fitted curve by direction and shape.

Compound	Potency
COc1ccc(C(=O)Nc2nnc(C(F)(F)F)s2)cc1	inconclusive: 39.8 µM [inhibitor, single point]
C=CCc1ccc(OCCCOc2ccc(C)cc2OC)c(OC)c1	inactive
Clc1cc(Cl)c(Cl)cc1Cl	inactive
CN(Cc1ccccc1)C(=O)c1[nH]cnc1C(=O)NC1CCN(C(=O)OC(C)(C)C)CC1	inactive
CCOc1ccc(OCCNC2CCCC2)cc1	inconclusive: 28.2 µM [inhibitor, partial curve]
COc1cc(S(=O)(=O)NCCN2CCOCC2)ccc1-n1cnnn1	inconclusive: 44.7 µM [inhibitor, partial curve]
Cc1cc(Br)cc2c1NC(=O)C2(O)CC(=O)c1ccco1 (configuration not stated)	inactive
CC(C(=O)Nc1cccc([N+](=O)[O-])c1)[n+]1ccccc1 (configuration not stated)	inactive
COc1cc(OC)cc(C(=O)N2CCC(N3CCN(c4ccccc4OC)CC3)CC2)c1	inconclusive: 12.6 µM [inhibitor, full curve, poor fit]
Cn1cc([N+](=O)[O-])c(C(=O)NNC(=O)c2ccc([N+](=O)[O-])cc2)n1	inconclusive: 25.1 µM [inhibitor, single point]
CC(=O)Nc1ccc(NC(=O)CCS(=O)(=O)c2ccc3c(c2)CC(=O)N3C)cc1	inactive
Cc1ccccc1/C=N/n1c(C2CCCCC2)n[nH]c1=S	inactive
CCOC(=O)CSc1nnc(-c2ccoc2C)n1-c1ccc(OCC)cc1	inactive
O=C(c1ccc2nsnc2c1)N1CCN(c2ccc([N+](=O)[O-])cc2)CC1	inactive
O=C(CSc1nc(-c2ccc(F)cc2)cc(C(F)(F)F)n1)NCc1ccco1	inconclusive: 7.08 µM [inhibitor, single point]
COc1ccc(C2C(C(=O)c3ccco3)=C(O)C(=O)N2CCCn2ccnc2)c(OC)c1 (configuration not stated)	inactive
Cc1ccc(C=C2C(=O)c3ccccc3C2=O)s1	inconclusive: 3.98 µM [inhibitor, full curve, poor fit]
COc1ccc(N2CC(NC(=O)COc3ccc4ccccc4c3)CC2=O)cc1OC (configuration not stated)	inactive
Cc1ccc2c(c1)c(-c1csc(N)n1)c(C)n2C	inconclusive: 56.2 µM [inhibitor, single point]
CCOC(=O)N1CCc2c(sc3c2C(=O)NC(c2ccccc2F)N3)C1 (configuration not stated)	inconclusive: 89.1 µM [inhibitor, single point]
O=C1C2=C(Nc3ccccc3SC2c2ccco2)c2ccccc21 (configuration not stated)	active: 22.4 µM
COc1cccc(/C=N/NC(=O)c2cc3cc([N+](=O)[O-])ccc3s2)c1O	inconclusive: 56.2 µM [inhibitor, partial curve, poor fit]
